The IC50 comes from the fitted curve, where viability falls to half of the control; a limit (>, <) means that the fit lies beyond the doses tested. AUC sums up the same curve from the lowest dose to the 256-fold higher top dose: 1 means no effect, lower means more sensitive. An inferred top dose was calculated from the reported fits.

Compound in one experiment: Cc1ccc(-n2nc(C(C)(C)C)cc2NC(=O)Nc2ccc(OCCN3CCOCC3)c3ccccc23)cc1 [BIRB 0796]
Kind of experiment: Viability of human cancer cell lines after 72 h of drug (GDSC screen). The conditions noted are these: top dose 10 µM; top dose inferred. How it is done:
(§1)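 Human cancer cell lines in 384-well plates, medium with 10% serum, drug for 72 h over a 256-fold dose range (nine 2-fold or five 4-fold steps up to the top dose). Adherent lines were fixed and stained with the nucleic acid dye Syto60, suspension lines read with resazurin; signal relative to control wells, capped at 0 and 100%. One two-parameter sigmoid per drug and line, fitted in a mixed model over all curves with the slope shared within a line.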
One may read the IC50 as the concentration needed to halve the response being measured. Consider KYSE-150 (oesophagus, adherent), for which the AUC stood at 0.988 and the IC50 was greater than 10 µM.
The matching figures for KYSE-220 (oesophagus, adherent): 0.977 and greater than 10 µM.
For KYSE-410 (oesophagus, adherent) the same measures were 0.958 and greater than 10 µM.
For KYSE-450 (oesophagus, adherent) the same measures were 0.937 and greater than 10 µM.
Turning to “LCLC-97TM1 (large cell lung carcinoma, adherent)”, the AUC was found to be 0.981 and the IC50 was greater than 10 µM.
“LK-2 (lung squamous cell carcinoma, adherent)”: the AUC was determined as 0.942 and the IC50 is greater than 10 µM.

Compound in another experiment: CC(C)=CC[C@@H](O)C1=CC(=O)c2c(O)ccc(O)c2C1=O [Shikonin]
Described as above. The conditions noted are these: top dose 16 µM; top dose inferred. How it is done:
as §1
As to HEC-1 (endometrium, adherent), the AUC was 0.518 and the IC50 is 1.12 µM.
Regarding HGC-27 (stomach, adherent), the AUC was 0.262 and the IC50 is 0.238 µM.
The matching figures for HSC-2 (head and neck, adherent): 0.26 and 0.219 µM.
The matching figures for HT55 (large intestine, adherent): 0.593 and 1.8 µM.
Regarding HT-115 (large intestine, adherent), the AUC turned out to be 0.702 and the IC50 was found to be 3.5 µM.
For HT-1197 (bladder, adherent) the same measures were 0.345 and 0.341 µM.
Consider Hs683 (glioma, adherent), for which the AUC is 0.42 and the IC50 amounted to 0.603 µM.
The matching figures for Hs939-T (melanoma, adherent): 0.333 and 0.326 µM.
As to HuH-7 (liver, adherent), the AUC worked out at 0.52 and the IC50 was found to be 1.13 µM.
For HuO9 (osteosarcoma, adherent) the same measures were 0.586 and 1.77 µM.
The matching figures for HuP-T3 (pancreas, adherent): 0.558 and 1.49 µM.
Regarding HuP-T4 (pancreas, adherent), the AUC is 0.511 and the IC50 was found to be 1.08 µM.
For IGR-1 (melanoma, adherent) the same measures were 0.258 and 0.226 µM.
The matching figures for IHH-4 (thyroid, semi-adherent): 0.133 and 0.101 µM.
With JEG-3 (urogenital system, adherent), the AUC is 0.579 and the half-inhibitory concentration (IC50) worked out at 1.61 µM.
Take JHH-1 (liver, adherent): the AUC was 0.598 and the IC50 was determined as 1.9 µM.
On to K2 (melanoma, adherent), for which the AUC came out at 0.655 and the IC50 is 3.08 µM.
For KMH-2 (thyroid, adherent), the AUC came out at 0.34 and the IC50 came to 0.379 µM.
The matching figures for KMRC-20 (kidney, adherent): 0.756 and 5.54 µM.
The matching figures for KYSE-50 (oesophagus, adherent): 0.284 and 0.26 µM.
The matching figures for KYSE-150 (oesophagus, adherent): 0.501 and 1.01 µM.
As for KYSE-220 (oesophagus, adherent), the AUC was determined as 0.663 and the IC50 worked out at 2.91 µM.
For KYSE-410 (oesophagus, adherent) the same measures were 0.397 and 0.51 µM.
KYSE-450 (oesophagus, adherent): the AUC was found to be 0.189 and the concentration for half-maximal inhibition (IC50) amounted to 0.126 µM.
As to “LCLC-97TM1 (large cell lung carcinoma, adherent)”, the AUC was 0.428 and the IC50 is 0.622 µM.
As for “LK-2 (lung squamous cell carcinoma, adherent)”, the AUC came out at 0.808 and the IC50 was 7.72 µM.

Compound in a further experiment: Cc1cccc(-c2[nH]c(C(C)(C)C)nc2-c2ccc3nccnc3c2)n1 [SB-525334]
The description is as above. The conditions noted are these: top dose 20 µM; top dose inferred. The protocol:
as §1
As to HEC-1 (endometrium, adherent), the AUC came to 0.989 and the IC50 was greater than 20 µM.
Regarding HGC-27 (stomach, adherent), the AUC worked out at 0.93 and the IC50 was greater than 20 µM.
On to HSC-2 (head and neck, adherent), for which the AUC amounted to 0.987 and the IC50 is greater than 20 µM.
On to HT55 (large intestine, adherent), for which the AUC came to 0.99 and the half-maximal inhibitory concentration (IC50) was greater than 20 µM.
As for HT-115 (large intestine, adherent), the AUC was found to be 0.985 and the IC50 was greater than 20 µM.
As for HT-1197 (bladder, adherent), the AUC came to 0.985 and the IC50 is greater than 20 µM.
For Hs683 (glioma, adherent) the same measures were 0.986 and greater than 20 µM.
Regarding Hs939-T (melanoma, adherent), the AUC is 0.93 and the IC50 was greater than 20 µM.
As to HuH-7 (liver, adherent), the AUC was found to be 0.925 and the IC50 is greater than 20 µM.
HuO9 (osteosarcoma, adherent): the AUC worked out at 0.961 and the IC50 is greater than 20 µM.
The matching figures for HuP-T3 (pancreas, adherent): 0.966 and greater than 20 µM.
Take HuP-T4 (pancreas, adherent): the AUC was found to be 0.939 and the IC50 is greater than 20 µM.
The matching figures for IGR-1 (melanoma, adherent): 0.552 and 1.7 µM.
For IHH-4 (thyroid, semi-adherent) the same measures were 0.967 and greater than 20 µM.
For JEG-3 (urogenital system, adherent) the same measures were 0.991 and greater than 20 µM.
JHH-1 (liver, adherent): the AUC came out at 0.932 and the IC50 is greater than 20 µM.
The matching figures for K2 (melanoma, adherent): 0.953 and greater than 20 µM.
For KMH-2 (thyroid, adherent), the AUC worked out at 0.973 and the IC50 was greater than 20 µM.
Take KMRC-20 (kidney, adherent): the AUC turned out to be 0.984 and the IC50 was greater than 20 µM.
As for KYSE-50 (oesophagus, adherent), the AUC is 0.988 and the IC50 is greater than 20 µM.
For KYSE-150 (oesophagus, adherent) the same measures were 0.964 and greater than 20 µM.
For the cell line KYSE-220 (oesophagus, adherent), the AUC was found to be 0.953 and the IC50 is greater than 20 µM.
The matching figures for KYSE-410 (oesophagus, adherent): 0.964 and greater than 20 µM.
The matching figures for KYSE-450 (oesophagus, adherent): 0.884 and 19.6 µM.
Turning to “LCLC-97TM1 (large cell lung carcinoma, adherent)”, the AUC was found to be 0.906 and the IC50 was greater than 20 µM.
Take “LK-2 (lung squamous cell carcinoma, adherent)”: the AUC was 0.92 and the IC50 is greater than 20 µM.
